The values that follow are results of earlier work, collected in patent US12240904B2, “Use of anti-PD-1 antibody in combination with famitinib in preparation of drug for treating tumors” (Jiangsu Hengrui Medicine Co., Ltd., priority 2018, dated 2025).

The subject of this data set is solid tumors. Particulars: in vivo; cited from earlier work.

B1: Compound A: PD-1 antibody with heavy and light chain sequences as shown in SEQ ID NO: 7 and SEQ ID NO: 8 (antibody)
heavy: EVQLVESGGGLVQPGGSLRLSCAASGFTFSSYMMSWVRQAPGKGLEWVATISGGGANTYYPDSVKGRFTISRDNAKNSLYLQMNSLRAEDTAVYYCARQLYYFDYWGQGTTVTVSSASTKGPSVFPLAPCSRSTSESTAALGCLVKDYFPEPVTVSWNSGALTSGVHTFPAVLQSSGLYSLSSVVTVPSSSLGTKTYTCNVDHKPSNTKVDKRV[human IgG4 Fc with S228P (EU numbers) not spelt out]
light: DIQMTQSPSSLSASVGDRVTITCLASQTIGTWLTWYQQKPGKAPKLLIYTATSLADGVPSRFSGSGSGTDFTLTISSLQPEDFATYYCQQVYSIPWTFGGGTKVEIKRTVAAPSVFIFPPSDEQLKSGTASVVCLLNNFYPREAKVQWKVDNALQSGNSQESVTEQDSKDSTYSLSSTLTLSKADYEKHKVYACEVTHQGLSSPVTKSFNRGEC
modifications: PEPTIDE (1)..(443) heavy chain sequence; PEPTIDE (1)..(214) light chain sequence
B1: the “incidence of reactive cutaneous capillary hyperplasia” value was 54.3%.
